From the supplement of paper PMC11417369
± gives the standard deviation of the averaged measurements. The list shows a part of the results.

Tested on: PfAP2-I AP2 domain 3 (GST-tagged)
Experiment: gcPBM binding intensity (ln(normalized median fluorescence intensity)); higher = stronger DNA binding
Summary of the method: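 An Agilent 4 × 180k array carrying primer-extended double-stranded 36-bp intergenic genomic probes and negative controls received GST-tagged P. falciparum DNA-binding domains expressed in E. coli, about 25 μg on average, for 1 h. The binding buffer contained 1× PBS, 1% milk, 0.2 mg/ml BSA, 0.5% salmon testes DNA and 0.03% Triton X-100. Binding intensity is the top Masliner-normalised natural-log median intensity across replicate spots of either probe orientation, read after Alexa488 anti-GST antibody staining and a 488 nm scan.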

| Sequence | gcPBM binding intensity (ln) |
| --- | --- |
| TTATTACACAAATGGTGTACTTTTGAGGAACCAAAA [XGTACX_site4279] | 7.94 ± 0.33 |
| ATTATATTATATTATACATGCATAATATTATATAAA [TGCATGCA_site647] | 7.8 ± 0.41 |
| AATATATACATACATACATGCACATATATATATATA [TGCATGCA_site393] | 9.16 ± 0.14 |
| ATTTGTTTAAGTCACGAACACACATATATCATCAAT [CACACA_site985] | 7.76 ± 0.6 |
| ATTATTTACCACAACACACAAATATTTACCAATCAT [CACACA_site5472] | 8.22 ± 0.52 |
| AGGCCTTTTAGTATTTCACACACGTAAATGTGTATA [CACACA_site8284] | 8.03 ± 0.74 |
| GTTTATTAGGAATTATGTACACAGTTTTATAAAGAA [XGTACX_site2994] | 8.29 ± 0.38 |
| AATATAATATATTGCACACAAAAAGTGAATTATTCT [CACACA_site1684] | 10.2 ± 0.4 |
| TAAAAAAGAACAGAAACACACAAATAAAATAAAATT [CACACA_site1758] | 7.99 ± 0.7 |
| CAAAATTGAAGGAACACACATACATATATATATATG [CACACA_site179] | 7.52 ± 0.57 |
| ATTTTAAATATTTGTGGTACCCCTTTTTTGTAACAA [XGTACX_site5590] | 8.07 ± 0.61 |
| CTTTGTGGTATAGATACACACTATATTAATATGAAC [CACACA_site7081] | 7.89 ± 0.52 |
| AAATAAAAAGGGTGCACACAAAAATATATATATATA [CACACA_site1728] | 11 ± 0.84 |
| AAAACTATAATAAAAGGTACACATTTATTTTTTTCT [XGTACX_site730] | 7.74 ± 0.3 |
| TTTTTTTTTTTTTTTACACACACAAAATATTATATG [CACACA_site2471] | 8.19 ± 0.6 |
| TATTATTTACCTTGCTAGTTCGTTCCAAATTTTATG [XGTACX_negctrl_site197] | 8.06 ± 0.71 |
| ATGTTTGATGCTACACGTACACACCTTGCAAATATT [XGTACX_site1644] | 8.61 ± 0.53 |
| TATATTATTCATTAAGCACACATTATTTTTATAATA [CACACA_site6056] | 8.645 ± 0.007 |
| AAAACAAATTTTAATGAGAATATGAAAAAAAAATAT [XGTACX_negctrl_site268] | 7.98 ± 0.58 |
| CACATTATGTATCATACACACAAATAAATATAGAAT [CACACA_site609] | 7.91 ± 0.46 |
| TATTCTAATATATGCATACACACAAATGTGAATATA [CACACA_site2143] | 7.79 ± 0.59 |
| TTTATATGTATTAAGTGTACACATATAATGTGTTTT [XGTACX_site4890] | 7.69 ± 0.37 |
| ATATTATGTCTACATAAACACACATATATATAAAAA [CACACA_site7976] | 7.83 ± 0.46 |

| Sequence | gcPBM binding intensity (ln) |
| --- | --- |
| AATAGTTATAAATATAAATATATATATATATATATA [CACACA_negctrl_site414] | 9.29 ± 0.58 |
| AATAAATATTCATTTTGTACATATTTTTCGTATATG [XGTACX_site6104] | 7.55 ± 0.59 |
| TTACCATAAGTATGTGGTACACTTTAAATGAAGATA [XGTACX_site6972] | 7.8 ± 0.38 |
| TATATATATAAATACACACACACCCTAAAAATATAT [CACACA_site4970] | 8.45 ± 0.57 |
| TTAACATCAAAATATGCACACAAACAATTAGCGGTA [CACACA_site8801] | 8.49 ± 0.52 |
| TCATATTTTACATATGCATGTTAATAATACAAACAT [TGCATGCA_site994] | 7.58 ± 0.57 |
| TTTTTTTCGTATATTACACACTATAAATAGAAATTA [CACACA_site6278] | 8.01 ± 0.42 |
| GTATAACAACTGATAAAAGAAAAAAAATTTATTATT [CACACA_negctrl_site377] | 7.5 ± 0.64 |
| ATAATATTTTTAAACTGTACTTTTATAAACACTTAT [XGTACX_site2625] | 7.98 ± 0.45 |
| ATTTATTTATGTATTTGTACGTATATATTTATGCAT [XGTACX_site5218] | 7.99 ± 0.23 |
| ATTTATTTGAAGAATTGTACTAAATTATATAGCGGT [XGTACX_site4998] | 7.94 ± 0.49 |
| TATAAAAAAATATATATATATATTATATGTGTAGAA [TGCATGCA_negctrl_site391] | 7.93 ± 0.59 |
| ATTTTAATTTGTTATACACACACAAAAAAAATTATA [CACACA_site9306] | 7.88 ± 0.35 |
| TATATCAAAATACATACACACATTTGTATTTACATT [CACACA_site5485] | 7.62 ± 0.56 |
| TTTTTTTTTAATCATGCACACTGTTAAAAGAATAAA [CACACA_site4817] | 8.73 ± 0.33 |
| TATATTATTTTTAGAAGTACTTATTGTTATAATTCT [XGTACX_site1015] | 7.59 ± 0.37 |
| AGAAAAGATAAAAATAGTACATATATATTTACTTAT [XGTACX_site7820] | 7.54 ± 0.51 |
| CTCCTTTCAAAAAAATGTACATGTTTACATTTCAAG [XGTACX_site7342] | 7.75 ± 0.38 |
| ATAAATATTTATAACAGTACATATTTACTATCCTAA [XGTACX_site4497] | 7.51 ± 0.57 |
| TTATATATAATATGACGTACAATTATACATTTTATG [XGTACX_site7598] | 7.67 ± 0.19 |
| TATACACATATTTTTACACACATATTTTTTCATATA [CACACA_site7244] | 7.89 ± 0.49 |
| ACGATTAAATCGATAATACACACTAAATGTAAAACA [CACACA_site119] | 7.7 ± 0.52 |
| TTTTTTTTTTCAAATACATGCATTTATGTATAATAC [TGCATGCA_site722] | 7.87 ± 0.73 |

| Sequence | gcPBM binding intensity (ln) |
| --- | --- |
| TAGGAAAAAAATACAGTGCAATTTTTATATAAATAA [GTGCAC_site9979] | 8.62 ± 0.5 |
| TACATATTTTATAACTGTACTTTTTTATTATCCAAT [XGTACX_site5396] | 7.91 ± 0.45 |
| TTTATATAAATCAAATGTACATATTCCAAATATATA [XGTACX_site8515] | 7.63 ± 0.19 |
| TTTTTTTTTTTTTTGTGTACTAATATTATAAATTTT [XGTACX_site4405] | 8.14 ± 0.3 |
| TTTTGTTATTTTTCAGTGCAATATGATAATAATATA | 10.5 ± 0.46 |
| GAATCCTTAATATGAACACACAAATATATTACCCAT [CACACA_site186] | 7.88 ± 0.56 |
| TCTTTTTAACAAAAAAAAAAAAAAAAAAAAAAATTA [CACACA_negctrl_site1637] | 7.37 ± 0.29 |
| AGAATTTTATTATATTGTACTTTTTATAAACCTTGT [XGTACX_site7495] | 7.7 ± 0.71 |
| TGCTTATTTAGAATTGTGCACAGCGAATATTCTGTT | 9.905 ± 0.049 |
| TACATTTATACTACTGCATTCAAAAAAAATAAAAAA [TGCATGCA_negctrl_site157] | 8.4 ± 0.11 |
| TTTAATTTTTATATAACACACATATTGGAATTATGT [CACACA_site734] | 7.68 ± 0.26 |
| TTATGTATTACCTGCCGTACTTCTAAAATAATTAAA [XGTACX_site1716] | 8.41 ± 0.86 |
| TTAAATGTGAAGTGAATACACACCTAATAAATATAA [CACACA_site3194] | 7.58 ± 0.52 |
| ATATATTTACTTAATACACACAAAAAAAAAAAAAAA [CACACA_site3657] | 8.1 ± 0.72 |
| ATGTTGTACAGACACACACACAAAAAAAAAATAAAA [CACACA_site7184] | 8.1 ± 0.13 |
| ATATATATATATATATGTACATACATACAATCATAT [XGTACX_site6410] | 9.38 ± 0.54 |
| TATAAATTTTGTTTAGCACACACACCGACATACATA [CACACA_site9033] | 8.46 ± 0.3 |
| TATAATAGCTTCTTTACACACACCATTTTTTTTTTT [CACACA_site1456] | 7.71 ± 0.58 |
| CTTACATATTACATATGTACATATACACCTTATGTC [XGTACX_site4679] | 7.99 ± 0.67 |
| ATATATTTTTAATTTGCATGTAGTAAAGCCTTAAAT [TGCATGCA_site593] | 7.78 ± 0.77 |
| CATCAAGTGAATTGTTGTACTTTACATTGTTTTTAT [XGTACX_site7261] | 7.89 ± 0.69 |
| TGTTTTCTTGATTATTGTACTTTAATTAGTAATATG [XGTACX_site8674] | 7.74 ± 0.38 |
| TAAATACATTTATGTACACACACATAGATGTATATT [CACACA_site5618] | 7.58 ± 0.33 |

| Sequence | gcPBM binding intensity (ln) |
| --- | --- |
| TGAATATTCATGTGTGTGCGCATGTTGTTAGACCAT [GTGCAC_site9869] | 8.52 ± 0.49 |
| AAAAATATTATAAGCACACATATATATATATATATA [CACACA_site2458] | 9.65 ± 0.49 |
| TATAATATGTTATATACACACATTATAAAATACACA [CACACA_site6742] | 7.76 ± 0.44 |
| AAAAAAAAAATTAATTGTACTAAAAAAATATTATAT [XGTACX_site8903] | 7.58 ± 0.52 |
| TAATAATAAATAAAATGTACATATGAACAAATAAGT [XGTACX_site6710] | 8.27 ± 0.54 |
| ACTGTCATTTATTGTAGTACGTCAATTTATTACATT [XGTACX_site2749] | 7.95 ± 0.54 |
| TGTTACAAAAAATAATGTACTTAATATATATATATA [XGTACX_site1016] | 9.11 ± 0.29 |
| TATCTTCATTTTTTTGGTACGCACGCAAATATGGCT [XGTACX_site3107] | 8.29 ± 0.49 |
| TATATATTATAAAAGAGTACAGAAAGAAAAAAAAAT [XGTACX_site8305] | 8.38 ± 0.64 |
| AAACTTTTTTTAAAAACACACATATATATTTATATA [CACACA_site4092] | 7.86 ± 0.49 |
| ATATTCAATATATTATGTACACATATATGAGGATAT [XGTACX_site7019] | 8.1 ± 0.39 |
| GTTTAAAATCTTTGCACACATATAAATAAATATATT [CACACA_site2555] | 9.18 ± 0.057 |
| AGTATATTAATATAATGTACAAACGTTTATTTTGTA [XGTACX_site5980] | 7.61 ± 0.6 |
| AAATATCTACATATTTGTACATATTTATACATATTT [XGTACX_site6300] | 7.42 ± 0.44 |
| GAAAAGTAGACAATATGTACATATAGTATTTATAAA [XGTACX_site878] | 7.8 ± 0.22 |
| AGCAACCCCCTAGCTACACACATATAGATATAAATA [CACACA_site6577] | 9.02 ± 0.34 |
| ATCATGTTATATATATGTACTAATAATATAATATAA [XGTACX_site1326] | 7.68 ± 0.34 |
| AGTTTATATTATTAAAGTACATATATATATTCTTAA [XGTACX_site3164] | 7.79 ± 0.4 |
| AGTCGAATGATGTACACACATACAAAACATTTATGC [CACACA_site4022] | 7.93 ± 0.47 |
| ATATATATATATATATGGTAAAGTAAAAGGAAATAC [XGTACX_negctrl_site45] | 9.52 ± 0.59 |
